From PubChem BioAssay AID588795 (National Center for Advancing Translational Sciences (NCATS), 2011)
Hit rate of the full screen: of about 390,000 compounds, about 1,400 (0.36%) were called active. This list was built around the results that the source calls inconclusive (neither active nor inactive); the mix of calls is not that of the screen. Calls come from the whole dose curve; as a rule, active = well fitted inhibition curve with a large enough effect; inconclusive = small, poorly fitted or top-dose-only effect; inactive = no such curve, though single readings can be large or run the other way. Potencies beside an inconclusive call are fits to weak or partial responses and may not hold up.

Biological target: Flap endonuclease 1 (Homo sapiens) (UniProt P39748)
Test: qHTS Assay for the Inhibitors of Human Flap endonuclease 1 (FEN1). Note: nearly all actives have a fitted effect of over 65% in size.
Details: Recombinant FEN1 flap cleavage, fluorescence, 15 min; series mostly up to 114 µM
In short: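 Steps: FEN1 (10 nM) dispensed; compound added by pin tool; 15 min at room temperature; substrate added to 50 nM final; reads at 0 min and 15 min; data normalized and fitted (four-parameter Hill).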
Potency is the fitted concentration of half-maximal effect; tags give direction and shape of the fitted curve.

Sequence of UniProt P39748 (P39748 whole entry, looked up): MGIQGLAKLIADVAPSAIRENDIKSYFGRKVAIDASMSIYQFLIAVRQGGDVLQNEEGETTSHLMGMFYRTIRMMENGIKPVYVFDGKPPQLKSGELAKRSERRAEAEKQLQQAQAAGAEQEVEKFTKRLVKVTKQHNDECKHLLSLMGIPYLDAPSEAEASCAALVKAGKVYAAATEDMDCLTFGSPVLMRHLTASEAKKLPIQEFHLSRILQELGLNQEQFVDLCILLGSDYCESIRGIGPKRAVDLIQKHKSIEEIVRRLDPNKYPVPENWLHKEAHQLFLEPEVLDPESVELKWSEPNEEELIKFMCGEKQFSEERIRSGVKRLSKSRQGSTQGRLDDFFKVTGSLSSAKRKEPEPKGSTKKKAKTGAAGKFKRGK

Row | Compound | Potency
1 | Cc1ccc(NC(=S)Nc2cccc3cnccc23)cc1 | inactive
2 | COc1ccc(-c2cn3cccnc3n2)cc1NC(=O)c1c(F)cccc1F | inactive
3 | CSCc1nnc(NC(=O)c2ccc(S(=O)(=O)N(C)C)cc2)o1 | inactive
4 | COc1ccc(CNc2cc(NCCCO)c([N+](=O)[O-])c3nonc23)cc1 | inconclusive: 79.4 µM [inhibitor, single point]
5 | O=C1C=C(N2CCN(c3ccccn3)CC2)C(=O)c2c(O)ccc(O)c21 | inactive
6 | COC(=O)C(Sc1nc(C)cc(C)c1C#N)c1ccccc1 (stereo not drawn) | inconclusive: 79.4 µM [inhibitor, partial curve, poor fit]
7 | O=c1cc(CN2CCN(S(=O)(=O)c3ccccc3)CC2)nc2ccc(Cl)cn12 | inactive
8 | CC(=O)Nc1ccc(NC(=S)NC(=O)/C=C/c2ccco2)cc1 | active: 50.1 µM
9 | COc1ccc2nc(NC(=O)c3ccc(S(=O)(=O)N4CCC(C)CC4)cc3)sc2c1 | inactive
10 | Cc1sc(NC(=O)c2cccs2)nc1-c1ccccc1 | inconclusive: 89.1 µM [inhibitor, partial curve, poor fit]
11 | COc1ccccc1-c1cc(C(F)(F)F)nc(S(=O)(=O)CCCC(=O)Nc2cccnc2Cl)n1 | inconclusive: 44.7 µM [inhibitor, partial curve, poor fit]
12 | COC(=O)C(C(C)=O)C1=C/C(=N\S(=O)(=O)c2ccc(C)cc2)c2ccccc2C1=O (stereo not drawn) | inactive
13 | Cc1ccc(NC(=O)CN(Cc2ccco2)Cc2ccccc2O)cc1C | inconclusive: 89.1 µM [inhibitor, partial curve, poor fit]
14 | COc1ccc2ccc3c(c2c1)N=CC1(O3)N(C)c2ccccc2C1(C)C (stereo not drawn) | inconclusive: 50.1 µM [inhibitor, partial curve, poor fit]
15 | COc1cc(NC(=O)c2ccc(COc3ccccc3Br)o2)cc(OC)c1OC | inconclusive: 50.1 µM [inhibitor, partial curve, poor fit]
16 | O=C1N=c2ccccc2=C1c1sc(Nc2cccc(O)c2)nc1O | inconclusive: 89.1 µM [inhibitor, single point]
17 | CC(C)OC(=O)CC(=O)c1sc2nc3c(cc2c1N)CN(C)CC3 | inconclusive: 50.1 µM [inhibitor, partial curve]
18 | Cc1ccc2nc(C)cc(Nc3ccc4c(c3)OCCO4)c2c1 | inconclusive: 50.1 µM [inhibitor, partial curve]
19 | CCN(c1ccc(C)cc1C)S(=O)(=O)c1nnc(NC(=O)c2ccco2)s1 | inactive
20 | CC(C)C[C@H](NC(=O)c1[nH]cnc1C(=O)N[C@H](C)c1ccccc1)C(=O)OC(C)(C)C | inconclusive: 17.8 µM [inhibitor, partial curve, poor fit]
21 | Cn1c(SCC(=O)N2c3ccccc3Sc3ccccc32)nc2ccccc21 | inconclusive: 100 µM [inhibitor, single point]
22 | CCN(CC)CCCNc1nc2cc(OC)c(OC)cc2c2nc(-c3ccccc3)nn12 | active: 12.6 µM

Row | Compound | Potency
23 | CSC1SCC2C(=O)N(C)C(C(C)C)C(=O)OCC(NC(=O)c3cnc4ccccc4n3)C(=O)NC(C)C(=O)N(C)C1C(=O)N(C)C(C(C)C)C(=O)OCC(NC(=O)c1cnc3ccccc3n1)C(=O)NC(C)C(=O)N2C (stereo not drawn) | active: 0.562 µM
24 | Fc1ccc(Br)cc1C1C=C(c2ccc(Br)s2)Nc2ncnn21 (stereo not drawn) | inactive
25 | Cc1cc(NC(=O)COC(=O)CC2CCCC2)c([N+](=O)[O-])cc1C | inactive
26 | Cc1cccc(S(=O)(=O)Nc2cccc(-c3ccc(N4CCCCC4)nn3)c2)c1 | inactive
27 | COc1cc(C2C(C#N)=C(N)Oc3n[nH]c(-c4cccnc4)c32)cc(Br)c1O (stereo not drawn) | inactive
28 | O=C(COC(=O)c1ccc([N+](=O)[O-])o1)Nc1ccc(F)cc1 | inconclusive: 15.8 µM [inhibitor, partial curve, poor fit]
29 | COc1ccc(-c2nc3c(c(SCC(=O)Nc4cccc(O)c4)n2)Cc2c(CO)cnc(C)c2O3)cc1 | inconclusive: 20 µM [inhibitor, full curve]
30 | NC(N)=Nc1ccc(/C=C2\C=Cc3ccccc32)cc1 | inconclusive: 44.7 µM [inhibitor, partial curve, poor fit]
31 | O=C(/C=C/c1ccco1)Nc1ccccc1N1CCCCC1 | inconclusive: 79.4 µM [inhibitor, single point]
32 | COc1cc2c(cc1OC)C(c1oc(-c3ccc(-c4cc(Cl)ccc4Cl)o3)cc1C)=NCC2 | inactive
33 | COc1ccc(C(=O)Nc2cccc(-c3cn4ccsc4n3)c2)cc1OC | inconclusive: 79.4 µM [inhibitor, partial curve, poor fit]
34 | CS(=O)(=O)N(CC(=O)Nc1ccccc1Sc1ccccc1)c1ccc(F)cc1 | inconclusive: 50.1 µM [inhibitor, partial curve, poor fit]
35 | CCC(NC(C)C)C(O)c1ccc(O)c2[nH]c(=O)ccc12 (stereo not drawn) | inconclusive: 17.8 µM [inhibitor, partial curve, poor fit]
36 | N#CC1=C(N)OC2=C(CCc3ccccc32)C1c1ccccc1 (stereo not drawn) | inconclusive: 44.7 µM [inhibitor, partial curve, poor fit]
37 | COc1ccc(-n2nc3c(N4CCC(C(=O)NCc5cccc(F)c5)CC4)nnc(C)c3c2C)cc1 | inconclusive: 44.7 µM [inhibitor, partial curve, poor fit]
38 | Nc1cccc2[nH]c(C(F)(F)F)nc12 | active: 56.2 µM
39 | COC(=O)C1=C(C)NC(C)=C(C(=O)OC)C1c1cn(-c2ccccc2)nc1-c1ccco1 | inconclusive: 89.1 µM [inhibitor, partial curve, poor fit]
40 | CC(C)(C)OC(=O)CNC(=O)c1[nH]cnc1C(=O)Nc1ccc(Cl)cc1 | inconclusive: 89.1 µM [inhibitor, partial curve, poor fit]
41 | COc1ccccc1CCC(=O)OCC(=O)N1c2ccccc2NC(=O)C1(C)C | inactive
42 | CCC(=O)N1CCc2cc(CNC(=O)Nc3cc(Cl)ccc3C(=O)OC)ccc21 | inactive
43 | CCCC[n+]1c2ccccc2cc2ccccc21 | active: 79.4 µM
